Results: PubChem BioAssay AID588795 (National Center for Advancing Translational Sciences (NCATS), 2011)
The campaign covered roughly 390,000 compounds. About 1,400 (0.36%) were called active. The inconclusive results got no clear call from the source; some entries with a clear call stand among them for comparison. The call rests on the fitted dose curve; in most records, active means well fitted inhibition curve with a large enough effect; inconclusive means small, poorly fitted or top-dose-only effect; inactive means no such curve, though single readings can be large or run the other way. Where the call is inconclusive, the potency comes from a doubtful curve fit.

Molecular target: Flap endonuclease 1 (Homo sapiens) (UniProt P39748)
Assay: qHTS Assay for the Inhibitors of Human Flap endonuclease 1 (FEN1). Further: nearly all actives have a fitted effect of over 65% in size.
Details: Recombinant FEN1 flap cleavage, fluorescence, 15 min; series mostly up to 114 µM; activity change, negative = inhibition: at the top concentration
Outline: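 FEN1 at 10 nM, compound pretreatment for 15 min (room temperature), 50 nM final substrate to initiate; endpoint reads at 0 and 15 min; DMSO-only plates used as vehicle background.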
On the % scale 0 is the no-effect control and ±100 the full control effect; potency means the concentration at half of the fitted maximal effect; tags describe the fitted curve by direction and shape.

UniProt P39748, sequence (P39748 whole entry, looked up): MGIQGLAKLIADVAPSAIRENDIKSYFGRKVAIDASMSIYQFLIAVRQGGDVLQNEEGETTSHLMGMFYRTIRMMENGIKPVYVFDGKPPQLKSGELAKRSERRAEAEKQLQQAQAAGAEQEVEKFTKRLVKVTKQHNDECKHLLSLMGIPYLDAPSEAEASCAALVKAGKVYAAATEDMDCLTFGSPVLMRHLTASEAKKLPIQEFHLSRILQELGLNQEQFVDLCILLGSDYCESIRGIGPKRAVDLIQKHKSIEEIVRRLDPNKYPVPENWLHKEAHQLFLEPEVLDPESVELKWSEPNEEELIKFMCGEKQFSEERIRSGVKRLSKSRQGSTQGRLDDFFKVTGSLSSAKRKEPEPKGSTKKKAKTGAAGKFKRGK

Row | SMILES | Potency | activity change, negative = inhibition
1 | CCc1ccc(OC(C)C(=O)N2CCC(c3nc4ccccc4s3)CC2)cc1 (stereo not drawn) | inconclusive: 79.4 µM [inhibitor, partial curve, poor fit] | 
2 | O=[N+]([O-])c1cc(CN2CCCC2)c2cccnc2c1O | active: 39.8 µM | 
3 | Cc1ccc(-c2[nH]c3cc(C(=O)NCCCn4ccnc4)ccc3c(=O)c2O)cc1 | inconclusive: 31.6 µM [inhibitor, full curve] | 
4 | Cc1c2ccncc2cc2c1[nH]c1ccccc12 | active: 17.8 µM | 
5 | COc1cc2c(C(F)(F)F)c(-c3ccsc3)oc(=O)c2cc1OC | inconclusive: 31.6 µM [inhibitor, single point] | 
6 | COc1ccc(Nc2nc3ccccc3c3nnc(C)n23)cc1Cl | inconclusive: 89.1 µM [inhibitor, partial curve, poor fit] | 
7 | Cc1[nH][nH]c(=O)c1C(c1ccc(-c2cccc(C(=O)O)c2)o1)c1c(C)[nH][nH]c1=O |  | inactive: -18.1%
8 | COc1ccccc1NS(=O)(=O)c1cc(NC(=O)c2cccc(S(=O)(=O)N(C)C)c2)ccc1N1CCOCC1 |  | inactive: -2.42%
9 | COc1ccc(N2CC(NC(=O)c3cc4ccccc4o3)CC2=O)cc1OC (stereo not drawn) |  | inactive: 17.4%
10 | N#C/C(=C\c1coc2ccc(O)cc2c1=O)C(=O)Nc1nc2ccccc2s1 | inconclusive: 12.6 µM [inhibitor, full curve, poor fit] | 
11 | Cc1cc(C)c(S(=O)(=O)c2ccc(C(C)(C)C)cc2)c(Cl)n1 | inconclusive: 79.4 µM [inhibitor, partial curve, poor fit] | 
12 | CCn1c(SC(C)C(=O)NCc2ccco2)nnc1-c1ccccc1 (stereo not drawn) | inconclusive: 100 µM [inhibitor, single point] | 
13 | COc1ccc(OC)c(NC(=O)c2c(NCc3cccs3)sc3c2CCCC3)c1 |  | inactive: -10.2%
14 | O=C(NCc1ccc(F)cc1)c1ccccc1OCc1ccccc1 | inconclusive: 89.1 µM [inhibitor, partial curve, poor fit] | 
15 | COc1ccc2c(c1)C(c1ccc(N3CCOCC3)cc1)=NNC(c1cccnc1)=N2 |  | inactive: 4.79%
16 | O=C1C2C(C(=O)N1/N=C/c1cc([N+](=O)[O-])c(O)cc1O)C1C=CC2C12CC2 (stereo not drawn) |  | inactive: -32%
17 | CCOc1cc(/C=C(\C#N)C(=O)Nc2cccc(C(=O)O)c2)ccc1OCc1ccccc1Cl | inconclusive: 79.4 µM [inhibitor, partial curve, poor fit] | 
18 | COc1ccc([C@H]2Oc3cc(O)cc(O)c3C(=O)C2[C@@H]2C(=O)c3c(O)cc(O)cc3O[C@@H]2c2ccc(OC)cc2)cc1 (stereo partly drawn) | inconclusive: 50.1 µM [inhibitor, partial curve, poor fit] | 
19 | O=C1NC(c2cccc(Br)c2)=N/C1=C\c1ccco1 |  | inactive: -2.56%
20 | Oc1ccc(N=Cc2ccc(O)c(O)c2)cc1 | inconclusive: 44.7 µM [inhibitor, partial curve] | 
21 | CCOC(=O)c1ccc(/[N+]([O-])=C/c2ccccc2)cc1 | inconclusive: 89.1 µM [inhibitor, partial curve, poor fit] | 

Row | SMILES | Potency | activity change, negative = inhibition
22 | COc1ccc(-c2nc(-c3ccccc3)c(-c3cc([N+](=O)[O-])ccc3C)[nH]2)cc1O | inconclusive: 50.1 µM [inhibitor, partial curve, poor fit] | 
23 | CCN(CC)CCCNC(=O)C1CCN(c2ncnc3c2sc2cccc(F)c23)CC1 | inconclusive: 50.1 µM [inhibitor, partial curve, poor fit] | 
24 | CC(C)OC(=O)c1nnn(-c2nonc2N)c1CN1CCc2ccccc2C1 | inconclusive: 70.8 µM [inhibitor, partial curve, poor fit] | 
25 | CC(=O)OCC(NC(=O)C(COCc1ccccc1)NC(=O)OC(C)(C)C)C1OC(n2cc(F)c(=O)[nH]c2=O)C(OC(C)=O)C1OC(C)=O (stereo not drawn) |  | inactive: 0.87%
26 | COc1ccc2cc(C(N)=O)/c(=N\NC(=O)c3ccccc3)oc2c1 | inconclusive: 17.8 µM [inhibitor, full curve] | 
27 | CN1CCN(C2=Nc3ccccc3Oc3ccc(Cl)cc32)CC1 | inconclusive: 26.7 µM [inhibitor, partial curve, poor fit] | 
28 | COC(=O)CS(=O)(=O)c1nnc([C@H](Cc2ccccc2)NC(=O)OC(C)(C)C)o1 | inconclusive: 39.8 µM [inhibitor, partial curve, poor fit] | 
29 | CCOC(=O)C1=C(O)c2ccccc2C(=O)/C1=C\c1ccc(CC)cc1 | inconclusive: 89.1 µM [inhibitor, single point] | 
30 | C/C(=N\Nc1cccc(C(=O)O)c1)c1ccc2c(c1)Nc1ccccc1S2 | inconclusive: 89.1 µM [inhibitor, partial curve, poor fit] | 
31 | CCCCCCCCCCS(=O)(=O)N/N=C/c1ccc(O)cc1 | inconclusive: 28.2 µM [inhibitor, partial curve, poor fit] | 
32 | CCOC(=O)c1c(-c2ccc(C)o2)csc1NC(=O)CSc1nnc(C)s1 | inconclusive: 100 µM [inhibitor, partial curve, poor fit] | 
33 | CCCCc1cc(=O)oc2cc(C)c(CN3CCCC3)c(O)c12 | inconclusive: 50.1 µM [inhibitor, partial curve] | 
34 | C[C@H](CO)N1C[C@H](C)[C@@H](CN(C)S(C)(=O)=O)Oc2c(NC(=O)C3CC3)cccc2C1=O |  | inactive: -2.67%
35 | O=C(/C=C/c1ccco1)NCC(=O)N/N=C/c1ccc([N+](=O)[O-])cc1 | inconclusive: 89.1 µM [inhibitor, single point] | 
36 | O=C(COc1ccccc1[N+](=O)[O-])OCC(=O)c1ccc(Br)s1 |  | inactive: -7.18%
37 | CCCCNc1c(-c2cccc(-c3cc(C(C)=O)cs3)c2)nc2ccc(C)cn12 | inconclusive: 50.1 µM [inhibitor, partial curve, poor fit] | 
38 | O=C(c1ccc(-c2cccc(C(F)(F)F)c2)o1)N1CCCC(C(F)(F)F)C1 (stereo not drawn) | inconclusive: 79.4 µM [inhibitor, partial curve, poor fit] | 
39 | COc1ccccc1CN1COc2ccc3c(oc(=O)c4ccccc43)c2C1 | inconclusive: 39.8 µM [inhibitor, single point] | 
40 | CCOc1ccc(N/C=C/C(=O)c2cc(OC)c(OC)c(OC)c2)cc1 | inconclusive: 25.1 µM [inhibitor, single point] | 
41 | O=C(O)c1ccc2c(c1)[C@@H]1C=CC[C@@H]1[C@H](c1ccccn1)N2 | active: 31.6 µM | 
42 | COc1ccc(CCNC(=O)c2cc3c(=O)n4ccccc4nc3n(CCCN3CCOCC3)c2=N)cc1OC |  | inactive: -10.9%

Row | SMILES | Potency | activity change, negative = inhibition
43 | O=C1c2ccccc2C(=O)c2c1cccc2N1CCCC1 | inconclusive: 39.8 µM [inhibitor, partial curve] | 
44 | C#CCOc1ccc(-c2nnc(Nc3cccc(C)c3)c3ccccc23)cc1 | inconclusive: 100 µM [inhibitor, single point] | 
45 | CN1C(=O)CC(c2ccccc2)CC1=O |  | inactive: -9.73%
46 | CCc1ccc2oc(C(=O)Nc3cccc(C(F)(F)F)c3)cc(=O)c2c1 |  | inactive: -3.66%
47 | COc1cc(OC)c(/C=C/c2ccnc3ccccc23)c(OC)c1 | inconclusive: 50.1 µM [inhibitor, partial curve, poor fit] | 
48 | O=C(NCc1cn(-c2ccccc2)nc1-c1ccccc1)c1ccc([N+](=O)[O-])cc1 |  | inactive: -5.17%
49 | O=[N+]([O-])c1cc(/C=N/O)ccc1Sc1ccccc1 | inconclusive: 89.1 µM [inhibitor, partial curve, poor fit] | 
50 | COC(=O)[C@]1(C)CCC[C@@]2(C)C3CC[C@@]4(C)C[C@]3(CCC21)CC4=NO (stereo partly drawn) | inconclusive: 79.4 µM [inhibitor, partial curve, poor fit] | 
51 | CC(=O)NC1=NN(C(C)=O)C(c2ccc(F)cc2)S1 (stereo not drawn) | inconclusive: 100 µM [inhibitor, partial curve, poor fit] | 
52 | OC[C@@H]1[C@@H](c2ccc(Cl)cc2)C(c2ccccc2)=NN1c1ccccc1 | inconclusive: 79.4 µM [inhibitor, partial curve, poor fit] | 
53 | Clc1ccc(Nc2ncnc3ccc(Br)cc23)cc1 | inconclusive: 50.1 µM [inhibitor, partial curve, poor fit] | 
54 | c1ccc2[nH]c3cc4ncnc4cc3nc2c1 | inconclusive: 44.7 µM [inhibitor, partial curve] | 
55 | CCOC(=O)c1c(-c2ccc(C)o2)csc1NC(=S)NC(=O)c1ccccc1Br | inconclusive: 89.1 µM [inhibitor, partial curve, poor fit] | 
56 | CCC(=O)n1nc(-c2cccnc2)nc1NCc1ccccc1 | inconclusive: 50.1 µM [inhibitor, partial curve, poor fit] | 
57 | O=C(CSc1nc2ccccc2n1Cc1cccc(C(F)(F)F)c1)NCc1ccccc1 |  | inactive: 5.8%
58 | O=c1[nH]n2c(=O)c3c([nH]c2c1N=Nc1ccccc1)CCC3 | inconclusive: 89.1 µM [inhibitor, partial curve, poor fit] | 
59 | COC(=O)Nc1ccc(S(=O)(=O)N2CCN(c3ccc(F)cc3)CC2)cc1 | inconclusive: 89.1 µM [inhibitor, partial curve, poor fit] | 
60 | COc1cc2c(Nc3ccc(NC(=O)c4ccccc4)cc3)ncnc2cc1OCCCN1CCOCC1 | inconclusive: 50.1 µM [inhibitor, partial curve] | 
61 | CC1=NN(c2cccc(C(=O)O)c2)C(=O)/C1=C\C=C/c1ccccc1 | active: 79.4 µM | 
62 | CC(C)(C)c1cccc(/C=N/O)c1O | inconclusive: 89.1 µM [inhibitor, partial curve, poor fit] | 
63 | CC1=Nc2ccc(C)cc2/C1=C/c1c(N)n2c(S(=O)(=O)C(C)C)nsc2nc1=O | inconclusive: 79.4 µM [inhibitor, single point] | 
